Data taken from the supplement of paper PMC10369915.
The other results are listed elsewhere or left out. Rule as the data show it: active = 3.2 or more and inactive = the rest. Most of these values are background signal.
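Also: displayed peptides selected on beads carrying the immobilized SH2 domain, with library peptides lacking any tyrosine serving as negative controls.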

Each binder was assayed against SHP2 C-SH2 domain E139D (assay: enrichment score (SH2-bound / input frequency) (ratio); bacterial display of known human phosphotyrosine sites (pTyr-Var adds point mutants) read by sequencing; higher = stronger binding; tyrosines were phosphorylated by kinases first). Conditions: peptide library: pTyr-Var.
With GRVYVYRLSEQ [ITGAE_Y551] the enrichment score was inactive: 2.47. In the case of GRVFVYRLSEQ [ITGAE_Y551_YF], the enrichment score is reported as inactive: 2.52. With KKGIVYIFNGR [ITGAV_Y404] the enrichment score was active: 4.6. In the case of KKGIVYVFNGR [ITGAV_Y404_I405V], the enrichment score is reported as active: 3.21. For RRAKGYPIDLY [ITGB2_Y125], the enrichment score was inactive: 0.225. For RRAKGYPINLF [ITGB2_Y125_D128N_YF], the enrichment score was inactive: 0.288. For RRAKGYPIFLF [ITGB2_Y125_D128Y_YF], the enrichment score was inactive: 0.278. For RRAKGYPIDLF [ITGB2_Y125_YF], the enrichment score was inactive: 0.378. PINLYYLMDLS [ITGB2_Y131_D128N] was tested, and the enrichment score was inactive: 1.45. For PIYLYYLMDLS [ITGB2_Y131_D128Y], the enrichment score was inactive: 1.48. For PIFLFYLMDLS [ITGB2_Y131_D128Y_YF], the enrichment score was inactive: 2.4. With PIDLFYLMDLS [ITGB2_Y131_YF] the enrichment score was inactive: 1.84. With NTCNRYCRDEI [ITGB3_Y660] the enrichment score was inactive: 1.18. In the case of KSVITYSPTTG [ITGB3BP_Y32], the enrichment score is reported as inactive: 1.01. PLQSEYSSITT [ITGB4_Y1760] was tested, and the enrichment score was inactive: 0.555. In the case of PLQSEYSSIST [ITGB4_Y1760_T1764S], the enrichment score is reported as inactive: 0.585. With LSVEIHDRREY [ITGB7_Y753_Y753H] the enrichment score was inactive: 1.39. For LSVEIHDRREF [ITGB7_Y753_Y753H_YF], the enrichment score was inactive: 1.45.

Each binder was assayed against SHP2 C-SH2 domain wild-type in the same assay as above. Conditions: peptide library: pTyr-Var.
With GRVYVYRLSEQ [ITGAE_Y551] the enrichment score was active: 4.9. For GRVFVYRLSEQ [ITGAE_Y551_YF], the enrichment score was inactive: 2.24. With KKGIVYIFNGR [ITGAV_Y404] the enrichment score was active: 3.59. For KKGIVYVFNGR [ITGAV_Y404_I405V], the enrichment score was inactive: 3.02. In the case of RRAKGYPIDLY [ITGB2_Y125], the enrichment score is reported as inactive: 0.27. In the case of RRAKGYPINLF [ITGB2_Y125_D128N_YF], the enrichment score is reported as inactive: 0.27. With RRAKGYPIFLF [ITGB2_Y125_D128Y_YF] the enrichment score was inactive: 0.231. For RRAKGYPIDLF [ITGB2_Y125_YF], the enrichment score was inactive: 0.235. PINLYYLMDLS [ITGB2_Y131_D128N] was tested, and the enrichment score was inactive: 1.37. With PIYLYYLMDLS [ITGB2_Y131_D128Y] the enrichment score was inactive: 1.95. For PIFLFYLMDLS [ITGB2_Y131_D128Y_YF], the enrichment score was inactive: 2.55. PIDLFYLMDLS [ITGB2_Y131_YF] was tested, and the enrichment score was inactive: 1.34. With NTCNRYCRDEI [ITGB3_Y660] the enrichment score was inactive: 0.938. With KSVITYSPTTG [ITGB3BP_Y32] the enrichment score was inactive: 0.678. For PLQSEYSSITT [ITGB4_Y1760], the enrichment score was inactive: 0.698. For PLQSEYSSIST [ITGB4_Y1760_T1764S], the enrichment score was inactive: 0.457. In the case of LSVEIHDRREY [ITGB7_Y753_Y753H], the enrichment score is reported as inactive: 1.07. LSVEIHDRREF [ITGB7_Y753_Y753H_YF] was tested, and the enrichment score was inactive: 1.65.

Each binder was assayed against SHP2 N-SH2 domain L43F in the same assay as above. Conditions: peptide library: pTyr-Var.
In the case of GRVYVYRLSEQ [ITGAE_Y551], the enrichment score is reported as inactive: 2.89. For GRVFVYRLSEQ [ITGAE_Y551_YF], the enrichment score was active: 4.95. In the case of KKGIVYIFNGR [ITGAV_Y404], the enrichment score is reported as active: 4.15. For KKGIVYVFNGR [ITGAV_Y404_I405V], the enrichment score was inactive: 2.83. For RRAKGYPIDLY [ITGB2_Y125], the enrichment score was inactive: 0.305. With RRAKGYPINLF [ITGB2_Y125_D128N_YF] the enrichment score was inactive: 0.211. RRAKGYPIFLF [ITGB2_Y125_D128Y_YF] was tested, and the enrichment score was inactive: 0.113. For RRAKGYPIDLF [ITGB2_Y125_YF], the enrichment score was inactive: 0.359. PINLYYLMDLS [ITGB2_Y131_D128N] was tested, and the enrichment score was inactive: 1.48. For PIYLYYLMDLS [ITGB2_Y131_D128Y], the enrichment score was inactive: 2. PIFLFYLMDLS [ITGB2_Y131_D128Y_YF] was tested, and the enrichment score was inactive: 2.52. PIDLFYLMDLS [ITGB2_Y131_YF] was tested, and the enrichment score was inactive: 1.79. NTCNRYCRDEI [ITGB3_Y660] was tested, and the enrichment score was inactive: 1.19. KSVITYSPTTG [ITGB3BP_Y32] was tested, and the enrichment score was inactive: 1.02. PLQSEYSSITT [ITGB4_Y1760] was tested, and the enrichment score was inactive: 0.833. For PLQSEYSSIST [ITGB4_Y1760_T1764S], the enrichment score was inactive: 0.645. With LSVEIHDRREY [ITGB7_Y753_Y753H] the enrichment score was inactive: 0.97. For LSVEIHDRREF [ITGB7_Y753_Y753H_YF], the enrichment score was inactive: 1.1.

Each binder was assayed against SHP2 N-SH2 domain T42A in the same assay as above. Conditions: peptide library: pTyr-Var.
With GRVYVYRLSEQ [ITGAE_Y551] the enrichment score was inactive: 1.6. With GRVFVYRLSEQ [ITGAE_Y551_YF] the enrichment score was inactive: 2.05. In the case of KKGIVYIFNGR [ITGAV_Y404], the enrichment score is reported as active: 3.38. KKGIVYVFNGR [ITGAV_Y404_I405V] was tested, and the enrichment score was inactive: 2.5. RRAKGYPIDLY [ITGB2_Y125] was tested, and the enrichment score was inactive: 0.275. For RRAKGYPINLF [ITGB2_Y125_D128N_YF], the enrichment score was inactive: 0.262. For RRAKGYPIFLF [ITGB2_Y125_D128Y_YF], the enrichment score was inactive: 0.208. In the case of RRAKGYPIDLF [ITGB2_Y125_YF], the enrichment score is reported as inactive: 0.335. With PINLYYLMDLS [ITGB2_Y131_D128N] the enrichment score was inactive: 1.29. PIYLYYLMDLS [ITGB2_Y131_D128Y] was tested, and the enrichment score was inactive: 1.32. For PIFLFYLMDLS [ITGB2_Y131_D128Y_YF], the enrichment score was inactive: 2.2. For PIDLFYLMDLS [ITGB2_Y131_YF], the enrichment score was inactive: 1.52. With NTCNRYCRDEI [ITGB3_Y660] the enrichment score was inactive: 0.966. In the case of KSVITYSPTTG [ITGB3BP_Y32], the enrichment score is reported as inactive: 0.863. For PLQSEYSSITT [ITGB4_Y1760], the enrichment score was inactive: 0.634. For PLQSEYSSIST [ITGB4_Y1760_T1764S], the enrichment score was inactive: 0.588. For LSVEIHDRREY [ITGB7_Y753_Y753H], the enrichment score was inactive: 1.02. For LSVEIHDRREF [ITGB7_Y753_Y753H_YF], the enrichment score was inactive: 1.31.

Each binder was assayed against SHP2 N-SH2 domain T52S in the same assay as above. Conditions: peptide library: pTyr-Var.
In the case of GRVYVYRLSEQ [ITGAE_Y551], the enrichment score is reported as active: 3.5. In the case of GRVFVYRLSEQ [ITGAE_Y551_YF], the enrichment score is reported as active: 6.79. KKGIVYIFNGR [ITGAV_Y404] was tested, and the enrichment score was active: 4.01. KKGIVYVFNGR [ITGAV_Y404_I405V] was tested, and the enrichment score was inactive: 2.88. With RRAKGYPIDLY [ITGB2_Y125] the enrichment score was inactive: 0.233. With RRAKGYPINLF [ITGB2_Y125_D128N_YF] the enrichment score was inactive: 0.128. For RRAKGYPIFLF [ITGB2_Y125_D128Y_YF], the enrichment score was inactive: 0.204. For RRAKGYPIDLF [ITGB2_Y125_YF], the enrichment score was inactive: 0.295. PINLYYLMDLS [ITGB2_Y131_D128N] was tested, and the enrichment score was inactive: 1.62. For PIYLYYLMDLS [ITGB2_Y131_D128Y], the enrichment score was inactive: 1.38. In the case of PIFLFYLMDLS [ITGB2_Y131_D128Y_YF], the enrichment score is reported as inactive: 2.27. PIDLFYLMDLS [ITGB2_Y131_YF] was tested, and the enrichment score was inactive: 2. In the case of NTCNRYCRDEI [ITGB3_Y660], the enrichment score is reported as inactive: 1.1. With KSVITYSPTTG [ITGB3BP_Y32] the enrichment score was inactive: 0.863. PLQSEYSSITT [ITGB4_Y1760] was tested, and the enrichment score was inactive: 0.611. PLQSEYSSIST [ITGB4_Y1760_T1764S] was tested, and the enrichment score was inactive: 0.463. In the case of LSVEIHDRREY [ITGB7_Y753_Y753H], the enrichment score is reported as inactive: 1.01. LSVEIHDRREF [ITGB7_Y753_Y753H_YF] was tested, and the enrichment score was inactive: 1.25.

The binders below were run against SHP2 N-SH2 domain wild-type in the same assay as above. Conditions: peptide library: pTyr-Var.
In the case of GRVYVYRLSEQ [ITGAE_Y551], the enrichment score is reported as inactive: 1.44. For GRVFVYRLSEQ [ITGAE_Y551_YF], the enrichment score was inactive: 3.04. KKGIVYIFNGR [ITGAV_Y404] was tested, and the enrichment score was active: 3.52. With KKGIVYVFNGR [ITGAV_Y404_I405V] the enrichment score was inactive: 2.88. For RRAKGYPIDLY [ITGB2_Y125], the enrichment score was inactive: 0.282. In the case of RRAKGYPINLF [ITGB2_Y125_D128N_YF], the enrichment score is reported as inactive: 0.683. With RRAKGYPIFLF [ITGB2_Y125_D128Y_YF] the enrichment score was inactive: 0.262. In the case of RRAKGYPIDLF [ITGB2_Y125_YF], the enrichment score is reported as inactive: 0.36. With PINLYYLMDLS [ITGB2_Y131_D128N] the enrichment score was inactive: 1.54. PIYLYYLMDLS [ITGB2_Y131_D128Y] was tested, and the enrichment score was inactive: 1.81. PIFLFYLMDLS [ITGB2_Y131_D128Y_YF] was tested, and the enrichment score was inactive: 2.25. With PIDLFYLMDLS [ITGB2_Y131_YF] the enrichment score was inactive: 1.76. NTCNRYCRDEI [ITGB3_Y660] was tested, and the enrichment score was inactive: 0.957. In the case of KSVITYSPTTG [ITGB3BP_Y32], the enrichment score is reported as inactive: 0.829. PLQSEYSSITT [ITGB4_Y1760] was tested, and the enrichment score was inactive: 0.66. PLQSEYSSIST [ITGB4_Y1760_T1764S] was tested, and the enrichment score was inactive: 0.721. For LSVEIHDRREY [ITGB7_Y753_Y753H], the enrichment score was inactive: 1.14. LSVEIHDRREF [ITGB7_Y753_Y753H_YF] was tested, and the enrichment score was inactive: 1.14.
